We go through 56 compounds from PubChem BioAssay AID463173 (ICCB-Longwood Screening Facility, Harvard Medical School, 2010).

Among all 52,000 compounds or so, about 1,700 (3.3%) were called active. No stated cut-off is given here; in the data, active means survival mostly below about 52% (no sharp cut-off); inactive means mostly above about 56%. This is one part of the list.

The test system of the assay is Wild type. As to the kind of experiment: growth inhibition of S. aureus wild type versus tarO mutant, primary screen, teichoic acid synthesis inhibitors, RN4220, OD600 (AID 463173). The conditions noted are these: S. aureus RN4220 wild type/DeltatarO growth, OD600, 18 h, hits give low values, screened at 18.75 µg/mL (by protocol).
With `CCCCn1c(SCC(=O)N(C(C)C)C(C)C)nc2c1c(=O)n(C)c(=O)n2C`, the survival was inactive: 101%.

For `COc1ccc(C(=O)Nc2ccc(-c3nc4ccccc4s3)cc2C)cc1Cl`, the survival was inactive: 71%.

For `COCCNC(=O)CCN1C(=O)c2cccnc2Oc2ccc(C)cc21`, the survival was inactive: 70%.

Regarding `O=C(NCCCO)Nc1c[nH]c2ccccc2c1=O`, the survival is inactive: 114%.

In the case of `COc1ccc(-n2c(=O)c3ccccc3n(Cc3ccccc3C)c2=O)c(OC)c1`, the survival was inactive: 71%.

`CC(=O)Nc1nonc1-c1nnc(SCC(=O)Nc2ccc(C)c(Cl)c2)n1-c1ccccc1`: the survival is inactive: 59%.

Take `Cc1ccc(-n2nc(C(=O)Nc3ccc(C)c(F)c3)c3c4ccccc4n(C)c3c2=O)cc1`: the survival is inactive: 90%.

On to `NC(=O)Cn1c(=O)n(CCCCCC(=O)NCc2ccccc2)c(=O)c2sccc21`, for which the survival was inactive: 79%.

Regarding `CCOc1ccc(C(=O)c2cnc3ccc(Cl)cc3c2S(=O)(=O)c2ccc(C)cc2)cc1`, the survival is inactive: 86%.

With `CCN(CC)c1ccc(/C=C(/C#N)C(=O)NC(C)C)o1`, the survival is inactive: 110%.

Turning to `CCc1ccccc1Nc1nc2cc(Cl)c(Cl)cc2nc1-n1nc(C)cc1C`, the survival was inactive: 83%.

Consider `Cc1ccc(-n2ncc3c(=O)n(CC(N)=O)cnc32)cc1`, for which the survival was inactive: 95%.

As to `Cc1ccc(-n2nc(CO)c(C(=O)NCCCc3ccccc3)n2)cc1`, the survival was inactive: 98%.

Take `CC(=O)Nc1ccc(NS(=O)(=O)c2c(C)nc3sccn3c2=O)cc1`: the survival was inactive: 84%.

Regarding `COc1cccc(Cn2c(NCc3ccc(C)cc3)nc3c2c(=O)n(C)c(=O)n3C)c1`, the survival was inactive: 81%.

Regarding `CCOc1ccc(CNC(=O)C2CCCN(S(=O)(=O)N(C)c3ccc(F)cc3)C2)cc1OC` (stereo unspecified), the survival is inactive: 124%.

Consider `Cc1nn(-c2ccc3nnc(C)n3n2)c(C)c1CCC(=O)Nc1ccc(OC(F)(F)F)cc1`, for which the survival was inactive: 71%.

`COc1ccc(-c2cn3nc(N4CCCC(C(=O)NCc5ccccc5OC)C4)sc3n2)cc1` (stereo unspecified): the survival was inactive: 68%.

`CC(=O)c1ccc(NC(=O)c2ccc(-c3nc(COc4ccc(C)cc4)c(C)o3)cc2)cc1`: the survival was inactive: 66%.

Regarding `Cc1ccc(NC(=O)CS(=O)CC(=O)Nc2ccc(N3CCOCC3)cc2)cc1Cl` (stereo unspecified), the survival was inactive: 87%.

On to `Cc1occc1C(=O)NCc1ccccc1`, for which the survival is inactive: 101%.

On to `CCOC(=O)c1cnc2c(ccc3ccccc32)c1Nc1ccc(Cl)cc1`, for which the survival was inactive: 30%.

Turning to `CCC(=O)N1CCc2cc(S(=O)(=O)NC(CC(C)C)C(=O)NCc3ccc(F)cc3)ccc21` (stereo unspecified), the survival is inactive: 77%.

On to `COC(=O)c1cc(-c2ccc(OC)c(OC)c2)c2c(=O)[nH]c(=O)n(C)c2n1`, for which the survival is inactive: 107%.

As for `CN(C)c1ccc(/C=C/C=c2\sc3nc4ccccc4n3c2=O)cc1`, the survival was inactive: 102%.

In the case of `Cc1cccc(C)c1NC(=O)Cn1c(=O)n(Cc2ccco2)c(=O)c2ccc(C(=O)NC3CCCC3)cc21`, the survival is inactive: 81%.

Turning to `Cc1ccc(NC(=O)Cn2c(=O)n(Cc3nc(C)no3)c(=O)c3cc4c(cc32)OCO4)c(Cl)c1`, the survival is inactive: 81%.

As for `O=C(Nc1ccc(Cl)cc1)Nc1ccc(N2CCOCC2)cc1`, the survival is inactive: 84%.

With `CCC(=O)N1c2ccccc2NC2=C(C(=O)CC(C)(C)C2)C1c1ccccn1` (stereo unspecified), the survival was inactive: 112%.

`Cc1ccc(S(=O)(=O)c2nc(-c3ccco3)oc2SCC(=O)Nc2ccc(F)cc2)cc1`: the survival is inactive: 59%.

In the case of `O=C(CCn1c(=O)c2sccc2n(Cc2cccc(F)c2)c1=O)NCc1ccc2c(c1)OCO2`, the survival was inactive: 89%.

Turning to `CC1Cc2cc(S(=O)(=O)CCC(=O)Nc3ccc(F)c(Cl)c3)ccc2N1C(=O)C1CC1` (stereo unspecified), the survival was inactive: 53%.

For the compound `Cc1ccc2scc(N3CCN(c4ccc(F)cc4)CC3)c(=O)c2c1`, the survival is inactive: 58%.

Regarding `CC1CCN(C(=O)c2ccc3c(c2)OCCO3)CC1`, the survival was inactive: 105%.

In the case of `CCn1nc(CC(=O)Nc2nnc(CC(=O)N3CCCC3)s2)c2ccccc2c1=O`, the survival was inactive: 95%.

On to `COc1ccc(NC(=O)c2sc3nc4n(c(=O)c3c2C)CCC4)cc1Cl`, for which the survival was inactive: 117%.

For `O=C1c2[nH]nc(-c3ccc(Br)cc3)c2C(c2cccc(O)c2)N1c1ccc(Cl)cc1` (stereo unspecified), the survival is active: 1%.

Take `COc1ccc(-n2c3c(cc(-c4nc(-c5ccc(Cl)cc5)cs4)c2=O)C(=O)CC(C)(C)C3)cc1`: the survival is inactive: 148%.

Turning to `O=S(=O)(Cc1ccccc1)N1CCCC(c2nc(-c3cccs3)no2)C1` (stereo unspecified), the survival is inactive: 112%.

Consider `COc1ccc2c(c1)sc1ncc(C(=O)NCc3cccc(Cl)c3)c(=O)n12`, for which the survival was inactive: 69%.

Regarding `COc1cc(C)ccc1OCCn1c(-c2ccc(Cl)cc2)nc2ccccc2c1=O`, the survival is inactive: 80%.

As to `COc1ccc(C2c3c(n(C)c4ccccc34)C(=O)N2CC(=O)Nc2ccccc2F)cc1` (stereo unspecified), the survival is inactive: 89%.

As to `O=C(NCc1ccc(Cl)cc1)c1cnc2sc(N3CCCC3)nn2c1=O`, the survival was inactive: 71%.

With `CCOc1ccc(C(c2c(O)cc(C)n(CCOC)c2=O)N2CCC(C)CC2)cc1` (stereo unspecified), the survival was inactive: 75%.

For the compound `COc1ccc(Cl)cc1NC(=O)CN(c1cccc(C)c1C)S(=O)(=O)c1ccccc1`, the survival is inactive: 86%.

As for `O=C(CC1N=C2c3ccccc3N=C(SCc3ccccc3F)N2C1=O)NCc1ccc2c(c1)OCO2` (stereo unspecified), the survival was inactive: 119%.

Consider `COc1ccc(CCNC(=O)c2ccc3c(c2)N(Cc2cccc(Cl)c2)C(=O)CS3)cc1OC`, for which the survival was inactive: 84%.

Turning to `O=C(Cc1ccc(NC(=O)N2CCSc3ncccc32)cc1)NCCc1ccccc1`, the survival is inactive: 128%.

On to `Cc1ccc(N(C)S(=O)(=O)c2nnc(NC(=O)C3CCCCC3)s2)cc1`, for which the survival is inactive: 87%.

With `CCc1ccc(CNC(=O)c2cc(-c3ccc(Cl)s3)nc3ccccc23)cc1`, the survival was inactive: 95%.

In the case of `NNc1nc2sc3c(c2c(=O)[nH]1)CCCC3`, the survival was inactive: 107%.

With `CCOc1ccc(NC(=O)Cn2c(=O)oc3cc(S(=O)(=O)N4CCCCCC4)ccc32)cc1`, the survival was inactive: 83%.

On to `Cc1ccc(CCNC(=O)c2ccc(CSCc3ccccc3Cl)o2)cc1`, for which the survival was inactive: 72%.

For `CCC(=O)N(CCN1CCOCC1)Cc1cc2cc3c(cc2nc1Cl)OCO3`, the survival was inactive: 122%.

With `CCOC(=O)N1CCc2c(sc3c2c(=O)n(-c2ccc(CC)cc2)c(=O)n3CC(=O)Nc2ccc(C)cc2)C1`, the survival was inactive: 84%.

Turning to `CCCCn1c(Cc2ccccc2)nnc1SCC(=O)NC`, the survival is inactive: 104%.
